# Article PMC4336329 (PLoS ONE, 2015)
# Screen size: about 310,000 compounds; about 2,200 (0.71%) showed an effect of 50% or more. The effect is printed as a negative number. The list shows a part of the results.
# Target: human ether-à-go-go-related gene (hERG) potassium channel (human, UniProt Q12809)
# Experiment: primary screen, population patch clamp on CHO cells stably expressing hERG
# Chain of human ether-à-go-go-related gene (hERG) potassium channel (Q12809 whole entry, looked up): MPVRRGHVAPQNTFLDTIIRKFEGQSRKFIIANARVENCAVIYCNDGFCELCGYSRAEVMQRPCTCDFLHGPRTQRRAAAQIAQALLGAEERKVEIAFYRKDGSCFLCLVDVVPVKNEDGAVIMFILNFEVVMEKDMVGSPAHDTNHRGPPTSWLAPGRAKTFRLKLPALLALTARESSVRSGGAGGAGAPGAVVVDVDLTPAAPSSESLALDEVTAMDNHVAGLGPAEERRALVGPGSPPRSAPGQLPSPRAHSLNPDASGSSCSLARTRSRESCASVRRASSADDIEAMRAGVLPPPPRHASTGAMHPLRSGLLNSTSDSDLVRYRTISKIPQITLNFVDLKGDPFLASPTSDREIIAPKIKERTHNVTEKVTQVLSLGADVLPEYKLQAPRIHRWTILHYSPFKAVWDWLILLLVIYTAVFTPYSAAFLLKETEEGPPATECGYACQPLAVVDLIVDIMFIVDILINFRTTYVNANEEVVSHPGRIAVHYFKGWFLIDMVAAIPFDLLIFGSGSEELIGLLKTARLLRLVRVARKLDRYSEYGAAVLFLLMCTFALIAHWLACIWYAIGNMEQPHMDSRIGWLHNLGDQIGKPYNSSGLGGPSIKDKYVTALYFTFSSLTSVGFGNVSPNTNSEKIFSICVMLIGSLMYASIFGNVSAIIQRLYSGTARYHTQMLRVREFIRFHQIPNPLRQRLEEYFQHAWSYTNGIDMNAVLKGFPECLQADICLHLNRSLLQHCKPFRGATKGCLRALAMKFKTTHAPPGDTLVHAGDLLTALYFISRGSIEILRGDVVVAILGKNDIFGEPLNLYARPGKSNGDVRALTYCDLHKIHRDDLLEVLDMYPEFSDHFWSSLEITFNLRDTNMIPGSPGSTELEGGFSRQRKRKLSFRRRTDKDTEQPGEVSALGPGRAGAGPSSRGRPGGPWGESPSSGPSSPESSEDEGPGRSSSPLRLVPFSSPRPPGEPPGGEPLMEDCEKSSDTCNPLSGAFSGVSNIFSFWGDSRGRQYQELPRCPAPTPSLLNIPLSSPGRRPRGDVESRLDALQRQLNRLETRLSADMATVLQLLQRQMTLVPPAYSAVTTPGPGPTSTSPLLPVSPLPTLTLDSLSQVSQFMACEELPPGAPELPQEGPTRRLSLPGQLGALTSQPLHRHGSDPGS
row,SMILES,"hERG current change (%, negative = inhibition) at 1uM"
1,CSCCC(NS(=O)(=O)/C=C/c1ccccc1)C(=O)N1CCC(C)CC1 (stereo not shown),-7.28%
2,Clc1ccc(Cn2ccc3ccccc32)cn1,7.09%
3,CCCCN(CC)C(=O)c1cc2c(=O)[nH]c3ccc(C)cc3c2s1,14.2%
4,CCOC(=O)/C(C#N)=C1\CCCN1CC(N)=S,7.15%
5,NC(=O)c1nsc(C(=O)N(c2ccccc2)C(C(=O)NCc2ccc(F)cc2)c2ccco2)c1N (stereo not shown),15.4%
6,CCN(CC)C(=O)CN(c1ccc(Cl)cc1)S(=O)(=O)c1ccccc1,4.6%
7,O=C(COC(=O)CNS(=O)(=O)/C=C/c1ccccc1)Nc1cc(S(=O)(=O)N2CCCCC2)ccc1Cl,14.6%
8,CC(C)Cc1nnc(NC(=O)CN2C(=O)NC3(CC(C)CC(C)(C)C3)C2=O)s1 (stereo not shown),6.76%
9,CCN(CC)C(=O)Oc1cc(=O)n2c3c(cccc13)CCC2,9.66%
10,CC(=O)c1cc(CN2CCN(C3CCN(C(C)C)CC3)C(CCO)C2)cs1 (stereo not shown),-3.84%
11,COc1ccc(O)c(/C=N/NC(=O)c2c(C)nnn2-c2nonc2N)c1,20.2%
12,O=C(NCCS(=O)(=O)NC1CCCCC1)c1ccccc1,1.61%
13,Fc1ccccc1NC(=S)NN(Cc1ccccc1)c1ccccc1,-16.2%
14,Cc1ccc(OCC(=O)Nc2cc(-c3nn4c(C)nnc4s3)ccc2C)cc1,-2.75%
15,Cc1ccc(/C=N/n2c(C3CCCCC3)n[nH]c2=S)o1,11.8%
16,CN(C)S(=O)(=O)c1cccc(C(=O)NC2CCSc3ccccc32)c1 (stereo not shown),5.86%
17,COc1cccc(N2C(=O)CC(NNc3nc4ccccc4s3)C2=O)c1 (stereo not shown),7.66%
18,O=S1(=O)N=C(N2CCOCC2)c2ccccc21,0.94%
19,Cc1onc(-c2ccccc2)c1C(=O)Nc1ccccc1N1CCOCC1,1.67%
20,Cc1cccnc1NC(=O)C1CCCN1S(=O)(=O)c1ccc(Cl)cc1 (stereo not shown),10.6%
21,Cc1c(CC(=O)O)c(=O)oc2c(C)c3occ(-c4ccc(Br)cc4)c3cc12,7.51%
22,CC(NC(=O)C(=O)NN=C1CCC(C(C)(C)C)CC1)c1ccccc1 (stereo not shown),-1.12%
23,O=S(=O)(Nc1cccc(-c2cn3cccnc3n2)c1)c1ccc(-c2ccccc2)cc1,12.7%
24,O=C(CN1C(=O)CSC1=O)N1CCCCC1,5.48%
25,Cc1ccc(CNCCNCCO)s1.Cl,1.64%
26,CCCCNc1c(-c2ccc(SC3CCCCC3)cc2)nc2ccccn12.O=C(O)C(F)(F)F,6.71%
27,C=C1[C@H]2CC[C@H]3[C@]4(C)C[C@H](O[C@H]5O[C@H](CO)[C@@H](OS(=O)(=O)[O-])[C@H](OS(=O)(=O)[O-])[C@H]5OC(=O)CC(C)C)C[C@@H](C(=O)O)[C@H]4CC[C@]3(C2)[C@H]1O.[K+],12.9%
28,COc1cccc(CNC(=O)Cc2ccc(S(=O)(=O)N3CCOCC3)s2)c1,18.8%

row,SMILES,"hERG current change (%, negative = inhibition) at 1uM"
1,CC(C)Sc1nc2c(c(=O)[nH]1)C(c1cccs1)C1=C(CC(C)(C)CC1=O)N2 (stereo not shown),12.6%
2,CC(=O)c1cccc(OCc2cc(C(=O)NC3CCN(Cc4ccccc4)CC3)no2)c1,-9.14%
3,O=C(CSc1nnc(NC(=O)c2ccco2)s1)NCc1ccc2c(c1)OCO2,13.8%
4,COc1ccc2c(c1)c(=O)oc1cc(OCC(=O)NC3CC3)ccc12,11%
5,COc1ccc(OC)c(S(=O)(=O)NCCC2=CCCCC2)c1,9.08%
6,COc1cccc(C(=O)NNC(=O)/C=C/c2ccccc2)c1,9.37%
7,CN(C1CCCCC1)S(=O)(=O)c1ccc(NC(=O)C2CCCCC2C(=O)O)cc1 (stereo not shown),10.3%
8,Cc1cccc(NC(=O)CSc2nc(-c3ccccc3)c(C#N)c(=O)[nH]2)c1C,-6.04%
9,COc1cc(C)nc(Nc2nc(C)c(C(C)=O)s2)n1,9.53%
10,Cc1nc2nc(C)c(CCC(=O)NC(C)c3ccc4c(c3)OCCO4)c(C)n2n1.Cl (stereo not shown),8.47%
11,CCN(CC)S(=O)(=O)c1ccc(N2CCCC2)c(NC(=O)Cc2ccccc2)c1,4.67%
12,Cc1ccc(S(=O)(=O)N2CCN(C(=O)CN3CCN(C)CC3)C2)cc1,13.8%
13,O=C(Cn1cnc2cc([N+](=O)[O-])ccc2c1=O)NC(c1ccccc1)c1ccccc1,5.21%
14,COc1cc(CNC2CCCC2)cc(OC)c1,14.3%
15,Nc1c(C(=O)Nc2ccc3c(c2)OCCO3)nnn1Cc1ccc(Cl)cc1,5.81%
16,CCOc1ccc(Cl)cc1S(=O)(=O)N1CCC(C(=O)NCC2CCCO2)CC1 (stereo not shown),8.18%
17,O=C(Nc1nncs1)c1cc2c(s1)CCC2,13.2%
18,CCN(CC(=O)Nc1ccc2c(c1)OCCO2)C(=O)CC1CCCC1,4.08%
19,COc1ccccc1C(=O)NCC(=O)OC(C)C(=O)NC1CCCCC1C (stereo not shown),12.5%
20,COc1ccccc1C1CCN(c2ccc([N+](=O)[O-])cn2)CC1,0.937%
21,O=S(=O)(Cc1ccco1)Cc1nc(-c2ccc(Cl)cc2)cs1,9.1%
22,C[C@H](N)CN1CCc2ccc(Br)cc21.O=C(O)/C=C/C(=O)O,3.97%
23,Cc1ccnc(N2C(=O)c3ccccc3C2=O)c1,12.8%
24,C/C(CC(=O)NCc1ccco1)=N\NC(=O)Cc1ccc(-c2ccccc2)cc1,7.56%
25,CSc1ccccc1NC(=O)CNCCCN1CCOCC1.O=C(O)C(=O)O,7.46%
26,CCOC(=O)c1c(C)oc2cc(Br)c(OC)cc12,11.5%
27,O=C(COc1ncnc2cc([N+](=O)[O-])ccc12)NC1CCCCC1,10.6%
